The results in this text go back to the supplement of paper PMC5919970.

Counter-ions that a name gives are not always drawn. Whole data set: some 2,000 compounds, median “fractional viability relative to vehicle” near 0.91, cut for the lowest 2% near 0.045. The list shows a part of the results.

The subject of this assay is TYKNU. Briefly: fractional viability relative to vehicle; TYKNU is a high-grade serous ovarian cancer line; higher = less growth inhibition. As to conditions: 72 h. The gist of the method:
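TYKNU control cells or lentiCRISPRv2 knockout derivatives were seeded at 500 cells per well into drug-stamped 384-well plates holding a ~2100-compound library at 2 or 10 μM, in duplicate. Cells were grown at 37 °C in 5% CO2 in RPMI 1640 with 10% FBS, and drug treatment lasted 72 h. Viability was read by Cell Titer Glo luminescence. Duplicate treatment wells were averaged and normalised to duplicate control wells from the same plate position.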

Setting [1] is: 2uM, genotype: DNM1L knockout (sgDNM1L #1).
Where [2] appears, read: 2uM, genotype: sgCTRLA1 (non-targeting control).
The mark [3] stands for this setting: 10uM, genotype: DNM1L knockout (sgDNM1L #1).
Where [4] appears, read: 10uM, genotype: sgCTRLA1 (non-targeting control).

In the case of `CNC[C@H](O)[C@@H](O)[C@H](O)[C@H](O)CO` [Meglumine], the fractional viability reads like this: under setting [1], 1.01; under setting [2], 1.14; under setting [3], 0.888; under setting [4], 1.15.

For `COC(=O)Nc1ccc(-c2nc(N3CCOCC3)c3cnn(C4CCN(C(=O)OC)CC4)c3n2)cc1`, the fractional viability under setting [1] is 0.495, the fractional viability under setting [2] came to 0.467, the fractional viability under setting [3] worked out at 0.312 and the fractional viability under setting [4] is 0.267.

Take `Cc1ccnc(NS(=O)(=O)c2ccc(N)cc2)n1` [Sulfamerazine]: the fractional viability runs as follows: under setting [1], 1.02; under setting [2], 1.19; under setting [3], 0.782; under setting [4], 1.07.

`NC(=O)OCC(COC(N)=O)c1ccccc1` [Felbamate]: the fractional viability under setting [1] amounted to 1.21, the fractional viability under setting [2] worked out at 1.23, the fractional viability under setting [3] came out at 0.944 and the fractional viability under setting [4] amounted to 1.21.

In the case of `CCC[S+]([O-])c1ccc2[nH]c(NC(=O)OC)nc2c1` (centres undefined) [Albendazole Oxide], the fractional viability reads like this: under setting [1], 1.04; under setting [2], 0.909; under setting [3], 0.505; under setting [4], 0.562.

Consider `C/C(=C\C(=O)OCCCCCCCCC(=O)O)C[C@@H]1OC[C@H](C[C@@H]2O[C@H]2[C@@H](C)[C@H](C)O)[C@@H](O)[C@H]1O` [Mupirocin], for which the fractional viability is, setting by setting: under setting [1], 1.13; under setting [2], 1.18; under setting [3], 0.546; under setting [4], 0.417.

As to `COc1ccc(C2=N[C@@H](c3ccc(Cl)cc3)[C@@H](c3ccc(Cl)cc3)N2C(=O)N2CCNC(=O)C2)c(OC(C)C)c1` [Nutlin-3], the fractional viability came to 0.557 under setting [1], 0.851 under setting [2], 0.272 under setting [3] and 0.386 under setting [4].

In the case of `COc1ccc(C2=N[C@@H](c3ccc(Cl)cc3)[C@@H](c3ccc(Cl)cc3)N2C(=O)N2CCNC(=O)C2)c(OC(C)C)c1` [Nutlin-3a], the fractional viability under setting [1] amounted to 0.315, the fractional viability under setting [2] was determined as 0.423, the fractional viability under setting [3] came out at 0.226 and the fractional viability under setting [4] amounted to 0.215.

With `CN/C(=N\CCSCc1nc[nH]c1C)NC#N` [Cimetidine], the fractional viability came to 0.911 under setting [1], 1.12 under setting [2], 0.973 under setting [3] and 1.04 under setting [4].

With `NC(=O)c1ccc(I)c([N+](=O)[O-])c1` [Iniparib (BSI-201)], the fractional viability runs as follows: under setting [1], 1.03; under setting [2], 1.03; under setting [3], 0.998; under setting [4], 1.07.

As for `O=C(O)c1cc(/N=N/c2ccc(S(=O)(=O)Nc3ccccn3)cc2)ccc1O` [Sulfasalazine], the fractional viability is, setting by setting: under setting [1], 0.895; under setting [2], 1.17; under setting [3], 0.854; under setting [4], 1.06.

The compound `CS(=O)(=O)c1ccc(-c2nnc(/C=C/c3nnc(-c4ccc(C#N)cc4)o3)n2-c2ccccc2Cl)nc1` gave a fractional viability under setting [1] of 0.928, a fractional viability under setting [2] of 1.16, a fractional viability under setting [3] of 0.693 and a fractional viability under setting [4] of 0.769.

With `c1coc(CNc2ncnc3[nH]cnc23)c1` [Kinetin], the fractional viability reads like this: under setting [1], 1.01; under setting [2], 1.01; under setting [3], 0.361; under setting [4], 0.431.

In the case of `C[C@]12CCC3=C4CCC(=O)C=C4CC[C@H]3[C@@H]1CC[C@@]2(O)CC#N` [Dienogest], the fractional viability reads like this: under setting [1], 1.02; under setting [2], 1.09; under setting [3], 0.89; under setting [4], 1.05.

On to `CCOC(=O)[C@H](CCc1ccccc1)N[C@@H](C)C(=O)N1C(=O)N(C)C[C@H]1C(=O)O` [Imidapril HCl], for which the fractional viability is, setting by setting: under setting [1], 0.976; under setting [2], 1.1; under setting [3], 0.958; under setting [4], 1.17.

Regarding `C[C@@H]1C[C@H]2[C@@H]3CCC4=CC(=O)C=C[C@]4(C)[C@@]3(Cl)[C@@H](O)C[C@]2(C)[C@@]1(OC(=O)c1ccco1)C(=O)CCl` [Mometasone furoate], the fractional viability came out at 0.849 under setting [1], 0.962 under setting [2], 0.136 under setting [3] and 0.477 under setting [4].
